Laboratory results taken from the supplement of paper PMC12645437, “Orthogonal IMiD-Degron Pairs Induce Selective Protein Degradation in Cells” (ACS Chemical Biology, 2025).
Some of the results follow.

biological target: no compound (DMSO); assay: log2 fold change of degron read counts, EGFP-low vs EGFP+ sorted cells; higher = lower degron-EGFP level without compound (poor expression or instability); details: compound: DMSO control; 18 h
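Note: jurkat cells carrying a lentiviral library of mutant zinc finger degrons fused to EGFP plus mCherry, mCherry+ cells FACS sorted, degron abundance counted by next-generation sequencing.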

Sequence	log2 fold change of degron read counts
FYCPVCGAPFTQKGNLLRHIKL	0.302
LFCEICGFNCTQKGNLLRHIKL	0.411
FCCEVCGALFTQKGNLLRHIKL	-0.838
FFCNQCGHGFTQKGNLLRHIKL	0.756
LDCEICGFWCTQKGNLLRHIKL	1.81
FGCNICGALFTQKGNLLRHIKL	0.203
FWCNVCGALFTQKGNLLRHIKL	1.03
FYCDVCGAPFTQKGNLLRHIKL	-0.258
FCCNQCGALFTQKGNLLRHIKL	-0.828
FGCNVCGATFTQKGNLLRHIKL	-1.55
FCCEQCGAGFTQKGNLLRHIKL	-1.11
LNCNQCGFKCTQKGNLLRHIKL	0.695
FTCEICGASFTQKGNLLRHIKL	-1.66
FICEVCGAAFTQKGNLLRHIKL	-2.14
FGCDVCGAKFTQKGNLLRHIKL	-1.17
FLCEVCGAIFTQKGNLLRHIKL	-0.712
FTCEICGHRFTQKGNLLRHIKL	-1.78
FVCNICGACFTQKGNLLRHIKL	-0.217
FCCDQCGAEFTQKGNLLRHIKL	-2.94
FVCPICGHSFTQKGNLLRHIKL	0.0164
FCCNQCGHWFTQKGNLLRHIKL	0.819
FWCNQCGANFTQKGNLLRHIKL	0.392
FECDVCGAQFTQKGNLLRHIKL	-3.48
FICEQCGAFFTQKGNLLRHIKL	-1.19
FICPQCGAFFTQKGNLLRHIKL	0.219

Sequence	log2 fold change of degron read counts
FFCPQCGASFTQKGNLLRHIKL	0.0557
FSCPICGRNFTQKGNLLRHIKL	-0.528
FQCNQCGRMFTQKGNLLRHIKL	-0.508
FWCNQCGHQFTQKGNLLRHIKL	0.51
FTCEICGRGFTQKGNLLRHIKL	-1.99
FFCEICGRRFTQKGNLLRHIKL	-1.27
LGCNQCGFGCTQKGNLLRHIKL	0.994
FTCNVCGASFTQKGNLLRHIKL	-0.367
FNCEVCGAFFTQKGNLLRHIKL	-0.867
FLCNICGALFTQKGNLLRHIKL	0.478
LHCNQCGFSCTQKGNLLRHIKL	0.601
FMCNQCGRQFTQKGNLLRHIKL	-0.397
FTCPVCGAQFTQKGNLLRHIKL	-0.398
FRCEICGHIFTQKGNLLRHIKL	-1.01
FSCNQCGHPFTQKGNLLRHIKL	0.172
FVCEICGAEFTQKGNLLRHIKL	-2.34
FECPICGHIFTQKGNLLRHIKL	-0.774
FWCNQCGHLFTQKGNLLRHIKL	1.91
FHCEICGANFTQKGNLLRHIKL	-1.72
FVCNVCGAVFTQKGNLLRHIKL	-0.964
FMCPICGHQFTQKGNLLRHIKL	-0.544
FMCEVCGAFFTQKGNLLRHIKL	-0.928
FWCPICGANFTQKGNLLRHIKL	0.38
FFCNQCGHTFTQKGNLLRHIKL	0.299
FFCNICGAEFTQKGNLLRHIKL	-0.174
